Data as given in PubChem BioAssay (NCATS).
This list was built around the results that the source calls inconclusive (neither active nor inactive); the mix of calls is not that of the screen. A call without a number means that no potency is given here. Potencies beside an inconclusive call are fits to weak or partial responses and may not hold up. The source made the active and inactive calls. The call rests on the fitted dose curve; in most records, active means well fitted inhibition curve with a large enough effect; inconclusive means small, poorly fitted or top-dose-only effect, or effect the other way; inactive means flat fitted curve, though single readings scatter.

Assay: qHTS for Inhibitors of Plasmodium falciparum (CP250) proliferation (AID 504320)
Conditions: P. falciparum CP250 in erythrocytes, SYBR Green DNA, 72 h; series mostly up to 6.7 µM
Method in brief: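 Parasite growth measured as SYBR Green DNA fluorescence (ex 485, em 535 nm) after overnight lysis following 72 h culture at 37 °C, 0.3% parasitemia, 2.5% hematocrit. Values normalized against DMSO and 0.29 uM artemisinin controls, with plate-stack correction.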
Potency means the concentration at half of the fitted maximal effect.

Compound | Potency
COC(=O)[C@H](Cc1ccccc1)NC(=O)O[C@@H]1C(=O)c2cc(Br)ccc2O[C@H]1c1ccc2c(c1)OCO2 | inactive
CCOC(=O)CCN1C(=O)[C@@H]2[C@H]3[C@H](O)[C@H](O)CC(=NNC(=O)OCc4ccc(OC)cc4)[C@H]3CC[C@H]2C1=O | inactive
CCCCC1=CC2=CC(=O)C(C)(OC(=O)CC)C(=O)C2=CN1Cc1ccc(OC)cc1 (centres undefined) | inactive
CCCCC1=CC2=C(c3ccco3)C(=O)C(C)(OC(=O)c3ccc(OC)cc3)C(=O)C2=CN1CCc1ccccn1 (centres undefined) | inconclusive: 0.5 nM [activator]
